Data: the supplement of paper PMC11383711
Some of the results follow. Binding of human antibodies (heavy:light variable regions, tested as scFv in one mRNA-display pool) to influenza hemagglutinin, with or without the stem antibody CR9114 bound first. Score = (mean enrichment − median) / interquartile range of that screen; higher = more enriched, 0 = typical non-binder. Active = above the paper's cut-off per screen: stems 28; unblocked H1 Solomon Islands 5, H1 Michigan 3, H3 5, H5 19, H7 2.85, both B 5; blocked 9, 7, H5 10, H7 10, B Phuket 10, B Lee 11.5. Scores are scaled within each screen and are no affinities; replicates correlate at about 0.6 to 0.9, and antibodies rare in the pool are noisier.

B1: K77-2G05 (protein)
chain 1: QVQLQESGPGRVKPSETLSLTCTVSGGSVSSDSFYWSWIRQPPGRGLEWIGYISKSGSTNYTPSLKSRVTVSIETSKNQISLNLSSVTAADTAVYYCARAFRGYCITTDCYIFDYWGQGTLVTVSS
chain 2: DIVMTQSPDSLAVSLGERATINCKSNRSILFSSNNKNYLAWYQQKPGQPPKLLIYWASTRESGVPDRFSGSGSGTDFTLTISRLQAEDVAVYYCQQYYGTPLTFGGGTKVEIK
B2: W85-2B08 (protein)
chain 1: EVQLVESGGGLVQAGRSLRLSCTASGFTFGDYGMSWVRQAPGKGLEWVGFIRSKAYGGTTDFAASVKGRFIISRDDSKSIAYLQMHSLKTEDTAVYYCCRDPYSGSYIDSWGRGTLVTVSS
chain 2: QSALTQPASVSGSPGQSITISCTGTSSDIGGFKYVSWYQQHPGKAPKVMIYEVSDRPSGVSNRFSGSKSGNTASLTISGLQAEDEADYYCSSYTSSSTFVFGTGTKVTVL
B3: antibody 1F06 (protein)
chain 1: VQLLESGGGLVQPGGSLRLSCAASGLTFSSYAMSWVRQAPGKGLEWVSVIYSDGSGTWYADSVKGRFTISRDNSKNTLFLQMSSLRAEDTAVYYCAKDRFRGSWIDVFDIWGQGTMVTVSS
chain 2: DIQMTQSPSSLSASVGDRVTITCQASQDMSNSLNWYHQKPGKAPKLLIYGASHLEAGVPSRFSGSGSGTDFTFTISSLQPEDIGTYYCQRFKAFGQGTKVEIK
B4: 039-10-4B05 (protein)
chain 1: QVQLVQSGAEVKKPGASVKVSCETSGYMFTAYATHWVRQAPGQGLEWMGWVNGLNGNTKYSEKFQGRITITRDTSATTAYMELSSLRSDDTAVYYCARGNIANWFDPWGQGTLVTVSS
chain 2: DIQMTQSPSSLSASVGDRVTITCRASQDIRKSLAWYQQKPGKAPKVLVFATSRLEDGVPSRFSGSGSGTEYTLTISSLQPEDFATYHCQQYQSTPYTFGQGTKVEIK
B5: AG12-C06 (protein)
chain 1: VQLQESGPGMVRPSQTLSLFCTVSGDSIGSGTDYWNWVRQPPGKGLEWVGDIPDRGNPNYNPSLRSRLSISRDTSKNRISLTLTSVTAADTAVYYCARASGTRVATITDYYGMDVWGQGTTVTVSS
chain 2: DIQMTQSPSSLSASVGDRVTITCRASQAITNHLNWYQSKPGKAPKFLISAASTLQNGVPSRFSGSGSGTDYSLTITNLQPDDFATYYCQQSHSNPITFGQGTRLEIK
B6: K77-2A04 (protein)
chain 1: QVHLQESGPGLVKPSGTLSLTCDVSGVSIRSPNWWSWVRQSPGKGLEWIGEIYHSADTNYNPSLKSRVTISLDKSKNQFSLKLISVTAADTAVYYCGRDRYDSSGFYRGYYYGIDVWGQGTTVTVS
chain 2: DVVMTQSPLSLPVTLGQAASISCRSGQSLVHTDGNTYLNWFQQRPGQSPRRLIYQVSNRDSGVPDRFSGSGSGTDFTLKISRVEAEDVAVYYCMQGTHWPPTFGQGTKVEVK
B7: 051-10-2A05 (protein)
chain 1: EVQLVESGGGLVQPGGSLRLSCAASGFIFSSYWMSWVRQAPGKGLEWVANINQGGSEKQYVDSVKGRFTISRDNAKKSLFLQMNRLRAEDTAVYYCVRVGAYGDTYHDYYGMDVWGQGTTVTVSS
chain 2: SYELTQAPSVSVAPGQTARITCGGNNIGSKSVQWYQQKPGQAPVMVVFDGSDRPSGIPERFSGANSGNTATLTISRVEAGDEADYHCQVWDSSSERHVVFGGGTKLTVL
B8: AG11-E04 (protein)
chain 1: VQLQESGPGLVKPSETLSLTCSVSGDSISSDYYWGWIRQPPGKGLEWIGSLYAGGITYYSPSLESRLSMAMDTSRNEFSMSLTSVTAADAAVYYCVRDRNILSREGFDFWGQGILVTVSS
chain 2: DIQMTQSPSSLSASVGDSVTITCRASQNIGFFLNWYRQKPGKAPELLVYLASTLQSGVPSRFSGGRSGTDFTLTISGLQPQDFATYFCQQSYENTPYTFGQGTKVEIK
B9: AG7-3B02 (protein)
chain 1: VQLVESGGVVVQPGGSLRLSCAASGFTFDDCAMHWVRQAPGKGLEWVSLITWDGGSTYYADSVKGRFTISRDNNKNSLYLQMNSLRAEDTALYYCAKDMSSGYYSIFDSWGQGTLVTVSS
chain 2: EIVMTQSPATLSVSPGERATLSCRASQTISGNLAWYQQKPGQAPRLLIYYASARATGIPARFSGSGSGTEFTLTISSLQSEDFALYYCQHYNNWPPQFGPGTKVDIK
B10: R95-1E01 (protein)
chain 1: EVQLVESGGGLVQPGRSLRLSCAGDGFSFDDHAMHWVRQAPGKGLEWVSGISWNSGSIGYVDSVKGRFTISRDNAKNSLYLQMNTLRPEDTALYYCVRDMNWNSQIGGYYFDYWGQGALVTVSS
chain 2: DIQMTQSPSSLSASVGDRVTITCRASHNITNFLNWYQQKPGKAPKLLIYGTSSLQSGVPSRFSGSGSGTDFTLAISSLHPEDFATYYCQQSYSIHPYTFGQGTKLDIK
B11: R95-2G09 (protein)
chain 1: QVQVQESGPGLVKPSETLSLTCNVSGGSISSSAYYWGWIRQSPGKGLEWIGSLHYSGSTDYNPSLKSRVTIFADTSKNQFSLKLTSVTAADTAVYYCARRGYNGNYYEYFHHWGQGTLVTVSS
chain 2: DIVMTQSPLSLPVTPGEPASISCRSSQSLLHSNGYNYLDWYLQKPGQSPQLLIYLGSSRASGVPDRFSGSGSGTDFTLKIRRVEADDVGVYYCMQALQTPHTFGQGTKLEIK
B12: R95-1G06 (protein)
chain 1: EVQLVESGGGLVRPGGSLRLSCAASGFTFNSYGLNWVRQAPGKGLEWVSSIGSSFGYIYYADSVKGRFTISRDNAKSSLFLQMNSLRVEDTAVYYCTRDGDGYARFDHWGHGTLVSVSS
chain 2: SYELTQPPSVSVAPGQTARITCGGNSIGSKSVHWYQQKPGQAPVLVVYDDSDRPSGIPERFSGSNSGDTATLTISRVEAGDEADYYCQVWDSRSDHVVFGGGTKLTVL
B13: K77-2H03 (protein)
chain 1: QVQLVQSGAEVRKPGASVKVSCRASGYTFTSYHLHWVRQAPGQGLEWMGIINLSGGSITYAQKFQGRVTMTRDTSTSTAYMELSSLRSDDTAVYYCARRGFIVTSHLYYYGMDVWGQGTTVTVS
chain 2: EIVLTQSPGTLSLSPGERATLSCRASQSVSSSYLAWYQQKPGQAPRLLIYGASSRATGIRDRFSGYGSGTDFTLTISRLEPEDCAVYYCQQYGRYGTFGQGTKVEIK
B14: K77-2F01 (protein)
chain 1: QVQLQESGPGLVKPSGTLSLTCAVSGGSISSSHWWSWVRQPPGKGLEWIGEIHHSGTSNHNPSVESRVNISVDKSKNHFSLELTSVTAADTAVYFCARVSTVAGHRSSYCLDSWGQGTLVAVSS
chain 2: QSALTQPASVSGSPGQSITISCTGTSSDVGGYDYVSWYQQHPGKAPKVIIYDVSYRPSGVSNRFSGSKSGNMASLTISGLQAEDEADYYCSSYTTTFTLLFGGGTKVT
B15: W85-3F09 (protein)
chain 1: EVQLVESGGGVVQPGRSLRLSCAASGFTFSSFGMHWVRQAPGKGLEWMAVISYNGINKDYADSVKGRFTISRDNSKNTLYLQMNSLRAEDTAVYYCAAGQRQFDYFPDGDYYYFDSWGQGTLVTVSS
chain 2: QSALTQPPSASGTPGQRVTISCSGSSSNIGSYYVYWYQQLPGTAPKVLIYRNDRRPSGLPDRFSGSKSGTSASLAISGLRSEDEGDYYCASWDNSLSGPVFGGGTKLTV
B16: K77-1G04 (protein)
chain 1: QVHLVQSGAEVKNPGASVKVSCKASGYTFTEYYMHWVRQSPGQGLEWMGWINPKTGGTNYAQKFQGWVTMTRDTSIKTVYMELSRLRCDDTAVYYCARDDGYTTGADVWGRGTTVTVSS
chain 2: SYELTQPPSVSVSPGQTARITCSGDALPKQYAYWYQQKPGQAPVMVIYKDSERPSGIPERFSGSSSGTTVTLTISGVQAEDEADYYCQSADSGGTYQLFGGGTKLT
B17: R95-1A10 (protein)
chain 1: EMALVESGGTVVQPGGSLTLSCEVSGFTFDDYAMHWVRQVPGKGLEWVSLISWDAGNTNYADSVKGRFNISRDNTRSILYLQMSSLRPEDTAIYYCTKDDGGGNYDYYRYMDVWGRGTTVTVS
chain 2: QSALTQPASESGSLGQSITISCTGTSGDVGGYNRVSWYQQHPGKAPRLVIYEGSKRPSGVSSRFSGSKSGNTASLTITGLQAEDEAEYFCSSYAGSITFVFGTGTKVNVL
B18: 56.b.16 (protein)
chain 1: EVQLVESGGGLVQPGGSLRLSCSASGFNVSDYAMHWVRQAPGKGLEYVSLISSNGFSTFYTDSVKGRFIISRDNSKNTLYLQMSSLRHDDTAVYYCVRAESHDFWSGYYWGHGTLVTVSS
chain 2: DVVMTPGSVSLPVTLGQPASISCRSSQSLVYSDGNTYLSWFQQRPGQSPRRLIYKVSNRDSGVPDRFSGSGSGTDFTLKIRGMEAEDVGVYYCLQTTHWPPTFGQGTKVEIK
B19: 56.f.01 (protein)
chain 1: QVHLVQSGAEVKKPGASVKVSCKVSGHTLSELSIHWVRQAPGNVLEWMGGFDPEDGESISAQMFQGRVIMTEDSSKDTAYMELSSLTSEDTAVYYCATGSYCSATYCSFDYWGQGTLVTVSS
chain 2: AIRMTQSPVSLSASVGDRVTITCWASQGISNYLVWIQQKPAKAPRLFIYYASSLQSGVPSRFSGSGSGTDYTLTIISLQPEDFATYYCQQFYGSLPLTFGGGTKVEIK

Each binder was assayed against H1 HA stem construct (mini-HA #4900) (assay: mRNA display binding score; higher = more enriched on the antigen). Conditions: antigen blocked with: nothing.
Experimental: (§1)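 A pool of natively paired antibodies, displayed as scFv on mRNA, was selected once on antigen-coated beads and sequenced before and after; two replicates.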

| Binder | mRNA display binding score |
| --- | --- |
| B1 | inactive: 0.516 |
| B2 | inactive: -0.648 |
| B3 | inactive: 0.842 |
| B4 | inactive: -0.553 |
| B5 | inactive: -0.671 |
| B6 | inactive: -0.478 |
| B7 | inactive: -0.673 |
| B8 | inactive: -0.761 |
| B9 | inactive: 1.28 |
| B10 | inactive: 1.99 |
| B11 | inactive: 0.184 |
| B12 | inactive: -0.305 |
| B13 | inactive: 1.18 |
| B14 | inactive: 0.561 |
| B15 | inactive: 0.108 |
| B16 | inactive: 1.27 |
| B17 | inactive: -0.543 |
| B18 | inactive: 0.0802 |
| B19 | inactive: -0.408 |

These binders were tested against H3 HA stem construct (H3ssF) in the same assay as above. Conditions: antigen blocked with: nothing.
Experimental: as §1

| Binder | mRNA display binding score |
| --- | --- |
| B1 | inactive: -0.212 |
| B2 | inactive: -0.327 |
| B3 | inactive: -0.0913 |
| B4 | inactive: -0.644 |
| B5 | inactive: -0.657 |
| B6 | inactive: -0.477 |
| B7 | inactive: 0.132 |
| B8 | inactive: 0.251 |
| B9 | inactive: 1.33 |
| B10 | inactive: 7.88 |
| B11 | inactive: -0.509 |
| B12 | inactive: -0.498 |
| B13 | inactive: 0.567 |
| B14 | inactive: 0.183 |
| B15 | inactive: 0.356 |
| B16 | inactive: -0.109 |
| B17 | inactive: 1.32 |
| B18 | active: 35.6 |
| B19 | inactive: -0.746 |
